According to the supplement of paper PMC8728848:
This is one part of the list.

Assays:
Assay in all cases: glycan array binding signal (z-score within array); higher = stronger binding
Settings in all cases: glycan notation: IUPAC condensed, linker removed
[1] = target: GlcNAc(b1-3)Gal(b1-4)GlcNAc(b1-3)Gal(b1-4)GlcNAc
How it was run: (§1)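 Negative Z-scores can be read as non-binding. The Z-score is calculated within each array and then averaged across arrays of one protein sequence at different concentrations or buffers and across linkers. Arrays, 3228 in all, were curated from the Consortium for Functional Glycomics database and kept only where the protein sequence was available.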

GlcNAc(b1-3)GalNAc = target: GlcNAc(b1-3)GalNAc
How it was run: as §1

GlcNAc(b1-3)Man = target: GlcNAc(b1-3)Man
How it was run: as §1

[2] = target: GlcNAc(b1-3)[GlcNAc(b1-4)][GlcNAc(b1-6)]GlcNAc
How it was run: as §1

[3] = target: GlcNAc(b1-3)[GlcNAc(b1-6)]Gal(b1-4)GlcNAc
How it was run: as §1

[4] = target: GlcNAc(b1-3)[GlcNAc(b1-6)]GalNAc
How it was run: as §1

[5] = target: GlcNAc(b1-4)Gal(b1-4)GlcNAc
How it was run: as §1

GlcNAc(b1-4)GlcNAc = target: GlcNAc(b1-4)GlcNAc
How it was run: as §1

[6] = target: GlcNAc(b1-4)GlcNAc(b1-4)GlcNAc
How it was run: as §1

[7] = target: GlcNAc(b1-4)GlcNAc(b1-4)GlcNAc(b1-4)GlcNAc(b1-4)GlcNAc
How it was run: as §1

[8] = target: GlcNAc(b1-4)GlcNAc(b1-4)GlcNAc(b1-4)GlcNAc(b1-4)GlcNAc(b1-4)GlcNAc
How it was run: as §1

[9] = target: GlcNAc(b1-4)[GlcNAc(b1-6)]GalNAc
How it was run: as §1

[10] = target: GlcNAc(b1-6)Gal(b1-4)GlcNAc
How it was run: as §1

GlcNAc(b1-6)GalNAc = target: GlcNAc(b1-6)GalNAc
How it was run: as §1

GlcNAc3Prop(b1-4)GlcNAc = target: GlcNAc3Prop(b1-4)GlcNAc
How it was run: as §1

[11] = target: GlcNAc6S(b1-3)Gal(b1-4)GlcNAc
How it was run: as §1

Kdn(a2-3)Gal(b1-3)GalNAc = target: Kdn(a2-3)Gal(b1-3)GalNAc
How it was run: as §1

Kdn(a2-3)Gal(b1-3)GlcNAc = target: Kdn(a2-3)Gal(b1-3)GlcNAc
How it was run: as §1

Kdn(a2-3)Gal(b1-4)Glc = target: Kdn(a2-3)Gal(b1-4)Glc
How it was run: as §1

Kdn(a2-3)Gal(b1-4)GlcNAc = target: Kdn(a2-3)Gal(b1-4)GlcNAc
How it was run: as §1

[12] = target: Kdn(a2-3)Gal(b1-4)[Fuc(a1-3)]GlcNAc
How it was run: as §1

Kdn(a2-6)Gal(b1-4)GlcNAc = target: Kdn(a2-6)Gal(b1-4)GlcNAc
How it was run: as §1

[13] = target: Man(a1-2)Man(a1-2)Man(a1-3)Man
How it was run: as §1

[14] = target: Man(a1-2)Man(a1-2)Man(a1-6)[Man(a1-3)]Man
How it was run: as §1

Man(a1-2)Man(a1-3)Man = target: Man(a1-2)Man(a1-3)Man
How it was run: as §1

[15] = target: Man(a1-2)Man(a1-3)[Man(a1-2)Man(a1-6)]Man
How it was run: as §1

[16] = target: Man(a1-2)Man(a1-3)[Man(a1-2)Man(a1-6)]Man(a1-6)[Man(a1-2)Man(a1-2)Man(a1-3)]Man
How it was run: as §1

[17] = target: Man(a1-2)Man(a1-3)[Man(a1-2)Man(a1-6)]Man(a1-6)[Man(a1-2)Man(a1-2)Man(a1-3)]Man(b1-4)GlcNAc(b1-4)GlcNAc
How it was run: as §1

[18] = target: Man(a1-2)Man(a1-3)[Man(a1-6)]Man(a1-6)[Man(a1-2)Man(a1-3)]Man(b1-4)GlcNAc(b1-4)GlcNAc
How it was run: as §1

[19] = target: Man(a1-2)Man(a1-6)[Man(a1-3)]Man(a1-6)[Man(a1-2)Man(a1-2)Man(a1-3)]Man
How it was run: as §1

[20] = target: Man(a1-2)Man(a1-6)[Man(a1-3)]Man(a1-6)[Man(a1-2)Man(a1-2)Man(a1-3)]Man(b1-4)GlcNAc(b1-4)GlcNAc
How it was run: as §1

Man(a1-3)[Man(a1-6)]Man = target: Man(a1-3)[Man(a1-6)]Man
How it was run: as §1

[21] = target: Man(a1-3)[Man(a1-6)]Man(a1-6)[Man(a1-2)Man(a1-3)]Man(b1-4)GlcNAc(b1-4)GlcNAc
How it was run: as §1

[22] = target: Man(a1-3)[Man(a1-6)]Man(a1-6)[Man(a1-3)]Man
How it was run: as §1

[23] = target: Man(a1-3)[Man(a1-6)]Man(a1-6)[Man(a1-3)]Man(b1-4)GlcNAc(b1-4)GlcNAc
How it was run: as §1

[24] = target: Man(a1-3)[Man(a1-6)]Man(b1-4)GlcNAc(b1-4)GlcNAc
How it was run: as §1

Man(a1-6)Man = target: Man(a1-6)Man
How it was run: as §1

Man(b1-4)GlcNAc = target: Man(b1-4)GlcNAc
How it was run: as §1

Neu5Ac(a2-3)Gal = target: Neu5Ac(a2-3)Gal
How it was run: as §1

[25] = target: Neu5Ac(a2-3)Gal(b1-3)GalNAc
How it was run: as §1

[26] = target: Neu5Ac(a2-3)Gal(b1-3)GalNAc(b1-3)Gal(a1-4)Gal(b1-4)Glc
How it was run: as §1

[27] = target: Neu5Ac(a2-3)Gal(b1-3)GalNAc(b1-4)[Neu5Ac(a2-3)]Gal(b1-4)Glc
How it was run: as §1

[28] = target: Neu5Ac(a2-3)Gal(b1-3)GalNAc6S
How it was run: as §1

[29] = target: Neu5Ac(a2-3)Gal(b1-3)GlcNAc
How it was run: as §1

[30] = target: Neu5Ac(a2-3)Gal(b1-3)GlcNAc(b1-2)Man(a1-3)[Neu5Ac(a2-3)Gal(b1-3)GlcNAc(b1-2)Man(a1-6)]Man(b1-4)GlcNAc(b1-4)GlcNAc
How it was run: as §1

B1: ZG-16 (Homo sapiens), O60844 (protein)
chain: IQARSSSYSGEYGSGGGKRFSHSGNQLDGPITALRVRVNTYYIVGLQVRYGKVWSDYVGGRNGDLEEIFLHPGESVIQVSGKYKWYLKKLVFVTDKGRYLSFGKDSGTSFNAVPLHPNTVLRFISGRSGSLIDAIGLHWDVYPTSCSRCSRGSDDDDKAEPRGPTIKPCPPCKCPAPNLLGGPSVFIFPPKIKDVLMISLSPIVTCVVVDVSEDDPDVQISWFVNNVEVHTAQTQTHREDYNSTLRVVSALPIQHQDWMSGKEFKCKVNNKDLPAPIERTISKPKGSVRAPQVYVLPPPEEEMTKKQVTLTCMVTDFMPEDIYVEWTNNGKTELNYKNTEPVLDSDGSYFMYSKLRVEKKNWVERNSYSCSVVHEGLHNHHTTKSFSRTPGKRTYHHHHHHARKLTR
glycan array binding signal (z-score) [1]: -0.198
glycan array binding signal (z-score) (GlcNAc(b1-3)GalNAc): -0.21
glycan array binding signal (z-score) (GlcNAc(b1-3)Man): 1.09
glycan array binding signal (z-score) [2]: -0.134
glycan array binding signal (z-score) [3]: -0.179
glycan array binding signal (z-score) [4]: -0.129
glycan array binding signal (z-score) [5]: -0.225
glycan array binding signal (z-score) (GlcNAc(b1-4)GlcNAc): -0.206
glycan array binding signal (z-score) [6]: -0.148
glycan array binding signal (z-score) [7]: -0.078
glycan array binding signal (z-score) [8]: 0.816
glycan array binding signal (z-score) [9]: -0.08
glycan array binding signal (z-score) [10]: -0.177
glycan array binding signal (z-score) (GlcNAc(b1-6)GalNAc): -0.087
glycan array binding signal (z-score) (GlcNAc3Prop(b1-4)GlcNAc): -0.188
glycan array binding signal (z-score) [11]: -0.2
glycan array binding signal (z-score) (Kdn(a2-3)Gal(b1-3)GalNAc): -0.188
glycan array binding signal (z-score) (Kdn(a2-3)Gal(b1-3)GlcNAc): -0.149
glycan array binding signal (z-score) (Kdn(a2-3)Gal(b1-4)Glc): -0.216
glycan array binding signal (z-score) (Kdn(a2-3)Gal(b1-4)GlcNAc): -0.17
glycan array binding signal (z-score) [12]: -0.167
glycan array binding signal (z-score) (Kdn(a2-6)Gal(b1-4)GlcNAc): -0.163
glycan array binding signal (z-score) [13]: 8.34
glycan array binding signal (z-score) [14]: 5.61
glycan array binding signal (z-score) (Man(a1-2)Man(a1-3)Man): 9.52
glycan array binding signal (z-score) [15]: 3.69
glycan array binding signal (z-score) [16]: 1.94
glycan array binding signal (z-score) [17]: 0.19
glycan array binding signal (z-score) [18]: -0.082
glycan array binding signal (z-score) [19]: 5.95
glycan array binding signal (z-score) [20]: -0.145
glycan array binding signal (z-score) (Man(a1-3)[Man(a1-6)]Man): 4.25
glycan array binding signal (z-score) [21]: -0.041
glycan array binding signal (z-score) [22]: 1
glycan array binding signal (z-score) [23]: 0.09
glycan array binding signal (z-score) [24]: -0.183
glycan array binding signal (z-score) (Man(a1-6)Man): 1.35
glycan array binding signal (z-score) (Man(b1-4)GlcNAc): -0.143
glycan array binding signal (z-score) (Neu5Ac(a2-3)Gal): -0.184
glycan array binding signal (z-score) [25]: -0.217
glycan array binding signal (z-score) [26]: -0.144
glycan array binding signal (z-score) [27]: -0.163
glycan array binding signal (z-score) [28]: -0.177
glycan array binding signal (z-score) [29]: -0.105
glycan array binding signal (z-score) [30]: -0.186
